# Results: the RNAGym collection of RNA variant scans (doi:10.1093/nar/gkz1192)
# The source gives no read counts; variants with many changes may rest on few reads.
# B1: CPEB3 Ribozyme (parent)
# chain: UAACAGGGGGCCACAGCAGAAGCGUUCACGUCGCAGCCCCUGUCAGAUUCUGGUGAAUCUGCGAAUUCUGCUGUAUAUCUC
# Variants of: B1
# Test: self-cleavage, relative activity (ratio to wild type); higher = more cleavage; in vitro, sequencing
# How it was run: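 Libraries of CPEB3 self-cleaving ribozyme mutants came from rounds of error-prone PCR and carried barcodes, which DNA sequencing matched to variants. In vitro transcription used T7 RNA polymerase at 37°C for 5 hours, with a further 15 min in DNase I before EDTA stopped the reaction; the ribozymes cleaved during both steps. The RNA was reverse transcribed with template switching and sequenced on Illumina. Relative activity is the cleaved/total read fraction of a variant divided by that of the unmutated ribozyme, averaged over three batches with at least 5 reads.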
row,Variant,self-cleavage
1,UAAAAGGGGGCCACAGCAGAAGCGUUCACGUCGCUGCCCAUGACAGAUUCUGGUGAGUCUGCGAAUUCUGCUGUAUAUCUC,0.22
2,UAUCAGGGGGCCACAGCAGAAGCGUUCACGUCGCAGCCCAUGUCAGAUUCUGGAGAAUCUGCGAAUUCCGCUGUAUAUCUC,0.19
3,UAUCAGGGGGCCACAGCAGAAGCGAUCACGUCGCAGCCCCUGUCAGAUUCUGGUGAAUCCGCGAAUUCUGCUGUAUAUCUC,0.11
4,UAUCAGGGGGCCACAGCAGAAGCGUUCACGUCGCAGCUCCUGUCAGAUUCUGGUGAAUCUGCGAAAUCUGCUGUAUAUCUC,0.33
5,UAUCAGGGGGCCACAGCAGAAGCGUUCACGUCGCAGCCCCUGUCAGAUUCAGGUGAAUCUGCGAAUUCUGCUGUAUUUCUC,0.8
6,UAUCAGGGGGCCACAGCAGAAGCGUUCACGUCACAGCCACCGUCAGAUUCUGGUGAAUCUGCGAAUUCUGCUGUAUAUCUC,0.08
7,UAUCAGAAGGCCACAGCAGAAGCGUUCACGUCGCAGCCCGUGUCAGAUUCUGGCGUAUCUGCGAAUUCUGCUGUAUAUCUC,0.11
8,UAUCAGGGGGCCACAGCAGAAGCAUUCACGUCGCAGCCCCUGCCAGAUUCUGGUGAAUCUGCAAAUACUGCCGUAAAUCUC,0.17
9,UAUCAGGGGGCCACAGCAGAAGCGUUCACGUCGCAGCCCCAGACAGAUUGUGGUGAGUCUGCGAAUCCUGCUGUAUAUCUC,0.06
10,UAUCAGGAGGCCACCGCAGAAGCGUUCACGUCGCAGCCCCUGUCAGAUUCUGGUGAAUCUGCGAAUUCUGCCGUAUAUCUC,0.21
11,UAUCAGGGGGCCACAGCAGAAGCGUUCACGUCGCAGCCCCCGCCAGAUUCUGGUGAAUCCGCGAAUUCUGCUGUAUAUCUC,0.09
12,UAUCAGGGGGCCACAGCAGAAGCGUUCAGGUCGCUGCCCGUGUCAGAUUCUGGCGAAUCUGCGUAUUCUGCAGUAUAUCUC,0.11
13,UAUCAGGGGGCCACAGCAGAAGCGUUCACGUCGCAGCCCCUGUCAGAUUCUGGUGAAUCUGCGAAAUCUGCCGUAUAUCUC,0.42
14,UAUCAGGGGGCCACAGCAGAAGCACUCACCUCGCAGCCCCCGUCAGAUUCUGGUGAAUCCGCGAAUUCUGCUGGAUAUCUC,0.05
15,UAUCAGGUGGCCACAGCAGAAGCGUUCACGUCGCUGCCCCUGUCCGAUUCUGGUGAAUCUGCGAAUUCUGCUGUAUAUCUC,0.14
16,UAUCAUGGGGCCACAGCAGAAGCGUUCCCGACGCAGCCCCCGUCAGAUUCUGGUGAAUCUGCGAAUUCUGCUGUAUAUCUC,0.05
17,UAUCAGGGGGCCACAGCAGAAGCGUCCACGUCGCAGCCCCUGUCAGAUUCAGGUGAAUCCGCGAAUUCUGCUGUAUAUCUC,0.37
18,UAUCAGGGGGCCACAGCAGAAGCGUUCACGUCGCAGCCCCUGUCAGAUUCUGGAGAAUCUGCAAAUUCUGCUGUAUACCUC,0.91
19,UAUCAGGUGGCCACAGCAGAAGCGUUCACGUCGCAGCCCCUGUCAGAUUCUGGAGAAUCUGCGAAUUCUGCUGUAUACCUC,0.3
20,UAUCAGGGGGCCACAGCAGAAGCGUUCACGUCGCAGCCCCUGUCAGACUCUGGUGAAUCUGCGAAUACUGCUGUAUACCUC,0.28
21,UAUCAGGGGGCCACAGCAGAAGCGUUCACGUCGCAGCCCCUGCCAGAUUCUGGUGAAUCUGCGAAUUCUGCCGUAUAUCUC,0.59
22,UAUCAGGGGGCCACAGCAGAACCGUUCACGUCGCAGCCCCCGUCAGAUUCUGGUUAAUCUGCGAAUUCCGCUGUAUAUCUC,0.18
23,UAAAAGGGGGCCGCGGCAGAAGCGUUCGCGUCGCAGCCCCUGUCAGAUUCUGGUGAAUCUGCGAAUUCUGCUGUAUAUCUU,0.65

row,Variant,self-cleavage
1,UAUCAGGGGGCCACAGCAGAAGCGUUCACGUCGCAGCCCAUGUCAGAUUCUGGUGAAUCUGCGAAUUCUGCUGUACAUCUC,0.42
2,UAUCAGGAGGCCACAGCAGAAGCGUUCACGUCGCUGCCCCUGUCAGAUUCUGGUGAAUCUGCGAAUACUGCUGUAUAUCUC,0.09
3,UAUCAGGGGGCCACAGCAGAAGCGUUCACGUCGCAGCCCUUGUCGGAUUCUGGUGAAUCCGCGAAUUCUGCUGUAUACCUC,0.95
4,UAUCAGGGGGCCACAGCAGAAGCGUUCACGUCGCAGCCCCUGUCAGAUCCCGGCGAAUCUGCUAAUUAUGCUGUAUAUCUC,0.18
5,UAUCAGGGGACCACAGCAGAAGCGUUCACGUCGCAGCCCCUGUCAGAUUCUGGUGAAUCAGCGAAUACUGCUGUAUGUCCC,0.1
6,UAUCAGGGGGCCACAGCAGAAGCGUUCACGUCACAGCCCCCGUCGAAUUCUGGUGAAUCUGCGAAUUCUGCUGUAUAUCUC,0.08
7,UAUCAGGGGGCCACAGCAGAAGCGUUCACGUCACAGCCCCCGUCGGAUUCUGGUGAAUCUGCGAAUUCUGCUGUAUAUCUC,0.14
8,UAUCAGGGGGCCACAGCAGAAGCGUUCACGUCGCAGCUCCUGUCAGAUUCUGGUGAACCUGCGAGUUCUGCUGUAUAUCUC,0.43
9,UAUCAGGGGGCCACAUCGGAAGCGUUCACGUCGCAGCCCCUGUCACAUUCUGGUGAAUCCGCGAAUUCUGCUGUAUAUCUC,0
10,UAUCAGGGGGCCACAGCAGAAGCGUUCACGUCGCAGCCCCUGCCAGAUUCUGGUGAGUCUGCGGAUUCUGCUGUAUAUCUC,0.23
11,UAAAAGGGGGCCACUGCAGAAGCGUUCACGUCGCAGCCCCUGUCAGAUUCUGGUGAAUCCGCGAAUUCUGCUGUAUAUCUC,1.02
12,UAUCAGGGGGCCACAACAGAAGCGUUCACGACGCAGCCCCUGUCAGAUUUUGGUGAAUCGGCGAAUCCUGCUGUAUACCUC,0.07
13,UAUCAGGGGGCCACAGCAGAAGCGUUCACGUCGCAGCCCCUGCCAGGUUCUGGUGAAUCUGCGAAUUCUGCUGUAUAUCUC,0.21
14,UAUCAGGGGGCCACAGCAGAAGCGUCCACGUCGCAGCCCCUGUCAGAUUCUGGUGAAUCCGCGAAAUCUGCUGUAUAUCUC,0.48
15,UAUCAGGGGACCACAGCAGAAGCGUUCACGUCGCAGCCCCUGUCAGAUUCUGGUGUAUCUGCGAAUCCUGCUGUAUAUGCC,0.1
16,UAUCAGGGGGCCACAGCAGAAGCGUUCACGUCGCAGCCCCUGUCAGAUUCUGGCGGAUCUGCGAAUUCUGCUGUGUAUCUC,0.57
17,UAAAAGGGGGCCGCAGCAGAAGCGUCCACGUCGCAGCCCCUGUCAGAUUCUGGUGAAUCCGCGGAUUCUGCCGUAUAUCUC,0.24
18,UAUCAGGGGGCCACAGCAGAAGCGAUCACGUCGCAGCCCCUGUCAGGUUGUGGCGAAUCUGCGAAUUCUGCAGUAUAUCUC,0.06
19,UAUCAGGGGGCCACAGCAGAAGCGUUCACGUCGCAGCCCCUGCCAGAUUCUGGUGAAUCUGCGAAUUCUGAUGUAUAUCUC,0.1
20,UAUCAGGGGGCCACAGCAGAAGCGUUCACGUCGCAGCCCUUGUCAGAUUCUGGUGAAUCUGCGAACUCUGCUGUAUAUCUC,0.29
21,UAUCAGGGGGCCACAGCAGAAGCGUCCACGACGCAGCCCCUGUCAGAUUCUGGUGAAUCUGCGAAUUCUGCUGUAUAUCUC,0.12
22,UAUCAGGGGGCCACAGCAGAAGCGCUCACGUCGCAGCCCCUGUCAGAUUCUGGUGAAUCUGCGGAUUCUGCUGUAAAUCUC,0.31
23,UAUCAGGGGGCCACAGCAGAAGCGUUCACGUCGCAGCCCGUGUCAGAUUCCGGUGAAUCUGCGACUUCUGCUGUAUAUCCC,0.12

row,Variant,self-cleavage
1,UAUCAGUGGGCCACAGCCCAAGCGUUCACGCCGCAGCCCCUGCCAGACUCUGGUGAAUCUGCGAAUUCUGCUGUAUAUCUC,0.09
2,UAUCAGGAGGCCACAGCAGAAGCGUUCCCGUCGCAGCCCCUGUCAGAUUCUGGUGAAUCUGCGAAUUCUGCUGUAUAUCUC,0.1
3,UAUCAGGGGGCCACAGCAGAAGCGUUCACGUCGAAGCCCCUGUCAGACUCUGGUGGAUCUGUGAAUUCUGCUGUAUAUCCC,0.11
4,UAUCAGGGGGCCACAGCAAGAGCGUUCCCGUCGCAGCCCCUGCCAGAUUCUGGUGAAUCUGCGAAUUCUGCUGUACAUCUC,0.23
5,UAUCAGGGGGCCACAGCAGAAGCGUUCACGUCGCAGCCCCUGUCAGACUCUGGUGAAUCCGCGAAUUCUGCCGUAUACCUC,0.18
6,UAUCAGAGGGCCACUGCAGAAGCGUUCACGUCGCAGCCCCAGUCAGAUUCAGGUGAAUCUGCGAAUUCUGCUGUAUAUCAC,0.32
7,UAAAAGGGGGCCACAGCAGGAGCGUUCACGUCGCAGCCCCCGUCAGAUUCUGGUGGAUCUGCGAAUUCUGCUGUAUAUCUC,0.89
8,UAUCAGGGGGCCACAGCAGAAGCGUUCACGUCGCAGCCCCUGUCAGAUUCCGGUGAAUCUGCGAAUUCUGCUGUAGAACUC,1.16
9,UAUCAGGGGGCCACAGCAGAAGCGUUCACGUUGCAGCCCCUGUCAGAUUCUGGUGAUUCAGCGAAUUCUGCUGUAUAUCUC,0.32
10,UAUCAGGGGACCACAGCAGAGGCGUCCACGUCGCAGCCCGUGUCAGAUUCAGGUGAAUCUGCGAAUUCUGCUGUAUAUCUC,0.05
11,UAUCAGGGGGCCACAGCAGAACCGUUCACGCCGCAGCCCCUGUCAGAUUCUGGUGAAUCUGCGAAUUCUGCUGUAUAUCUC,0.41
12,UAUCAGGGGGCCACAGCAGAAGCGUUCACGUCGCAGCCCCUGUCAGAUUCCGGAGAAUCUGCGAAUUCUGCCGUAUAUCUC,1.22
13,UAUCAGAGGGCCACAGCAGAAGCGUUCGCGUCGCAGCCCCUGUCAGACUCUGGUGAAUCUGCGGAUUCUGCUGUAUAUCUC,0.1
14,UAUCAGGGGGCCACAGCAGAAGCGUUCACGUCGCAGUCCUUGUCAGAUUCGGGUGAAUCUGAGAAUUCUGCGGUAUAUCUC,0.16
15,UAUCAGGGGGCCACAGCAGAAGCGUUCACGUCGCAGCCCCUGUCAGAUUCUGGUGAAUCCGCGAAUUCUGCUGUGUAUCUC,0.61
16,UAUCAGGGGGCCACAGCAGAAGCGCUCACGUCGCAGCCCCUGGCAGAUUCUGGUGAAUCUGCGAAUUCUGCUGUAUACCUC,0.27
17,UAUCAGGAGGCCACAGCAGAAGCGUUCACGUCGCAGCCCCUGUCAGAUUCUGGUGAAUCUGCGAAUUCUGCUGAAUAUCUC,0.61
18,UAAAGGGGGGCCACAGCAGAAGCGUUCACGUCGCAGCCCCUGUCUGAUUCUGGUGAAUCUGCGAAUUCUGCUGUAUAUCUC,0.44
19,UAAAAGGGGGCCUCAGCAGAAGCGUUCACGUCGCAGCCCCUGUCAGAUUCUGGCGAAUCUGCGAAUUCCGCUGUAUAUCUC,0.92
20,UAUCAGGGGGCCACAGCAGAAGCGUUCACGUCGCAGGCCCUCUCAGAUUCUGGUGAAUCUGCGGAUUCUGCUGUAUAUCUC,0.16
21,UAUCAGGGGGCCACAGCAGAAGCGUCCCCGUCGCGGCCCCUGUCAGAUUCUGGUGAAUCUGCGAAUUCUGCUGUAUAUCUC,0.74
22,UAUCAGGGGGCCACAGCAGAAGCGUUCACGUCGCAGCCCCUGUCAGAUUCUGGUGAAUCUGCGAAUUCCGCUGUGUAUCUC,0.49
